PMC12153800
No constants are given. Whether binding was seen depends on the method and setting. For some of these results: In cells and extracts the contact can be indirect. Some binding calls cover weakened binding; strength is not graded here. Tags and fused reporters may be left off the sequences shown.

By UniProt entry, the sequences of proteins in these tests, tags left out. Residues count along the entry.
UniProt Q9EQD0, residues 27-585: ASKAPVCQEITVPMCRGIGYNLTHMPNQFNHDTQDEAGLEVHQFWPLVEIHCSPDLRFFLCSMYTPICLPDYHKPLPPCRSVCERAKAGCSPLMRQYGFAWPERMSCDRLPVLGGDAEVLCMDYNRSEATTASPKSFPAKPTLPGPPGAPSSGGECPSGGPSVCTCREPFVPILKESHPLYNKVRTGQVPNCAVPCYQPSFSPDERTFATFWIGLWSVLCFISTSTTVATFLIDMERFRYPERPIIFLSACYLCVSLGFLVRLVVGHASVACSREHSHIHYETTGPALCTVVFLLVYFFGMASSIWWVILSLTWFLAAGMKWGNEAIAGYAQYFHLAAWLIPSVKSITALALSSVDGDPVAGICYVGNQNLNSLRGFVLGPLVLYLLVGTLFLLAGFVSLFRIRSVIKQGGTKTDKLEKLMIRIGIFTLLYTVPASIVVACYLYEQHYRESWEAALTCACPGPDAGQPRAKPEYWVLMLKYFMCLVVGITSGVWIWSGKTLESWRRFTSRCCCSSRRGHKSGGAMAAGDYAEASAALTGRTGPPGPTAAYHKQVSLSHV
UniProt Q61091, residues 28-685: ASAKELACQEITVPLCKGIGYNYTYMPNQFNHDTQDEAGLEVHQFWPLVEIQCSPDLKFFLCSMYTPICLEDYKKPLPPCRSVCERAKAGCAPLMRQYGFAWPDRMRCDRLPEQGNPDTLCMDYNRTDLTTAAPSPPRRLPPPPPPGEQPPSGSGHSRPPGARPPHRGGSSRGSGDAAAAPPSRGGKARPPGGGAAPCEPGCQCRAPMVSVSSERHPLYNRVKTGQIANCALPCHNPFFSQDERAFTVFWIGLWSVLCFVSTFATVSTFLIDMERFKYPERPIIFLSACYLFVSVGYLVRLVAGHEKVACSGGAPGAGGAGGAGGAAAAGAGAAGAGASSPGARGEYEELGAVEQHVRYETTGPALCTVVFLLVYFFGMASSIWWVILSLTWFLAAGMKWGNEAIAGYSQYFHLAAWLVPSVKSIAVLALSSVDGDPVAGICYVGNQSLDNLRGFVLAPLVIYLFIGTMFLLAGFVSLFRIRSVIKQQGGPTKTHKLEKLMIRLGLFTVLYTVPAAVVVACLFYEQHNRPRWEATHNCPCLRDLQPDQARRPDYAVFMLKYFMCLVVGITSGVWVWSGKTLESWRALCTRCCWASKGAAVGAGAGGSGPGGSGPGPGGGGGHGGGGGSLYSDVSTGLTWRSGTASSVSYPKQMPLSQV

How the values were obtained:
[1] = target: HiBiT-FZD5-mCherry (NCI-H1703 cells) (mouse) (UniProt Q9EQD0); experiment: confocal microscopy of fluorescent ligand on live cells; NCI-H1703 cells stably expressing HiBiT-FZD(4,5,8,10)-mCherry incubated with eGFP-Wnt conditioned medium (1 h in the methods, 3 h in the legend of Figure 1A), then imaged
[2] = target: T1, HiBiT-FZD3-mCherry (UniProt Q61086); experiment: FRET or BRET; NanoBiT/BRET association kinetics on live U-2 OS cells stably expressing low levels of HiBiT-FZD-mCherry; LgBiT and Vivazine added; four concentrations of eGFP-Wnt conditioned medium (Wnt3a up to 15.2 nM, Wnt5a up to 17.3 nM, Wnt16 up to 24 nM); 37 °C, DMEM with 5% FBS and 10 mM HEPES, read every 80 s for 300 min; kinetic Kd
T1 sequence: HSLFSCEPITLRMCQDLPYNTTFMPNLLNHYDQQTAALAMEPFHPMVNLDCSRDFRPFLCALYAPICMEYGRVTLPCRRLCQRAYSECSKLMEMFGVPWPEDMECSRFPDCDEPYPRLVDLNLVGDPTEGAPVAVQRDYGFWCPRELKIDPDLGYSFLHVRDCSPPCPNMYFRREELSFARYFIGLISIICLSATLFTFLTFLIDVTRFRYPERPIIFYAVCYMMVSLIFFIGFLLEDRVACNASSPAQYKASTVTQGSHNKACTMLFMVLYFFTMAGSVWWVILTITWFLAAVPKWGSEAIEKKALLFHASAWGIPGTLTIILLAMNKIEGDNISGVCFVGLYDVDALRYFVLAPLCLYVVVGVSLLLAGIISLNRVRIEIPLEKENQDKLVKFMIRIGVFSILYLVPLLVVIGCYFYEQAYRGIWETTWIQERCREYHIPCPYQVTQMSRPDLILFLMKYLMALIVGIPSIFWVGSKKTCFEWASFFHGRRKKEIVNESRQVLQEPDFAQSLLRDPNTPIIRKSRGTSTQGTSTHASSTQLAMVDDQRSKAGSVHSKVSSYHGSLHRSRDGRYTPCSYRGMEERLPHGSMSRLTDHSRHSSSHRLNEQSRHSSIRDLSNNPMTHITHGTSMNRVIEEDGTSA

[3] = target: HiBiT-FZD5-mCherry (U-2 OS cells) (mouse) (UniProt Q9EQD0); experiment: as above
[4] = target: T2, HiBiT-FZD6-mCherry (UniProt Q61089); experiment: as above
T2 sequence: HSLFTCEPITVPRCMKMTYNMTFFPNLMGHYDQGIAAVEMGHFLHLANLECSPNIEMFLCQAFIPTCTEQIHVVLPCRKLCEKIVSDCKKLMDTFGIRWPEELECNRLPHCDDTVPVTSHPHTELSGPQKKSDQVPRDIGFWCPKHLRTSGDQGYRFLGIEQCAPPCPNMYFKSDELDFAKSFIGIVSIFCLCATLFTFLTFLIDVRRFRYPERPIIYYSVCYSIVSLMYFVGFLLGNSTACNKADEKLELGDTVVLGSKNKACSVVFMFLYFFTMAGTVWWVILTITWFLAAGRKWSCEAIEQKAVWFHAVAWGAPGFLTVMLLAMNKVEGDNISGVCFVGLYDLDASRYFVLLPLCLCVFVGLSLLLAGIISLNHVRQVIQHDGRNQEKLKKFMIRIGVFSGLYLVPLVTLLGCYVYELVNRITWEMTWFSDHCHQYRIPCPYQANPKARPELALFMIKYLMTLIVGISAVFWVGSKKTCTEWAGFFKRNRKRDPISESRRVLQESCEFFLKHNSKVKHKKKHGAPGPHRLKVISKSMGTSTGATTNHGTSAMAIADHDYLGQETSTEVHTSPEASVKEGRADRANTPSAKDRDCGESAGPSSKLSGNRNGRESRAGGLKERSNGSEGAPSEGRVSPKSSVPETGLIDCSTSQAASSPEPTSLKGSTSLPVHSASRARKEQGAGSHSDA

[5] = target: HiBiT-FZD8-mCherry (mouse) (UniProt Q61091); experiment: as above

B1: eGFP-Wnt5a (ligand, UniProt P41221 62-380)
chain: IIGAQPLCSQLAGLSQGQKKLCHLYQDHMQYIGEGAKTGIKECQYQFRHRRWNCSTVDNTSVFGRVMQIGSRETAFTYAVSAAGVVNAMSRACREGELSTCGCSRAARPKDLPRDWLWGGCGDNIDYGYRFAKEFVDARERERIHAKGSYESARILMNLHNNEAGRRTVYNLADVACKCHGVSGSCSLKTCWLQLADFRKVGDALKEKYDSAAAMRLNSRGKLVQVNSRFNSPTTQDLVYIDPSPDYCVRNESTGSLGTQGRLCNKTSEGMDGCELMCCGRGYDQFKTVQTERCHCKFHWCCYVKCKKCTEIVDQFVCK
- binding [1]: binds
- binding [2]: no binding (tested: 17.3 nM)
- binding [3]: binds
- binding [4]: no binding (tested: 17.3 nM)
- binding [5]: binds

B2: eGFP-Wnt16 (ligand, UniProt Q9UBV4 30-365)
chain: NWMWLGIASFGVPEKLGCANLPLNSRQKELCKRKPYLLPSIREGARLGIQECGSQFRHERWNCMITAAATTAPMGASPLFGYELSSGTKETAFIYAVMAAGLVHSVTRSCSAGNMTECSCDTTLQNGGSASEGWHWGGCSDDVQYGMWFSRKFLDFPIGNTTGKENKVLLAMNLHNNEAGRQAVAKLMSVDCRCHGVSGSCAVKTCWKTMSSFEKIGHLLKDKYENSIQISDKTKRKMRRREKDQRKIPIHKDDLLYVNKSPNYCVEDKKLGIPGTQGRECNRTSEGADGCNLLCCGRGYNTHVVRHVERCECKFIWCCYVRCRRCESMTDVHTCK
- binding [1]: binds
- binding [2]: no binding (tested: 24 nM)
- binding [3]: binds
- binding [4]: no binding (tested: 24 nM)
- binding [5]: binds
